Measured values taken from PubChem BioAssay (NCATS).
Values joined by “and” are separate entries in the source; they are usually repeats but may differ in a detail not shown here. Identical values can stand only once. This list was built around the results that the source calls inconclusive (neither active nor inactive); the mix of calls is not that of the screen. Potencies of inconclusive entries are doubtful fits and often do not repeat. Active and inactive are the calls of the source. Calls follow the shape of the dose curve; as a rule, active = well fitted curve in the direction sought with a large enough effect; inconclusive = small, poorly fitted or top-dose-only effect, or another doubt; inactive = no such curve, though single readings can be large; an effect the other way counts as inactive or inconclusive.

How the values were obtained:
[1] = Viability qHTS for spleen associated tyrosine kinase inhibitor (SYKi) naive MV4-11 cells (AID 1963823); settings: MV4-11 AML viability, CellTiter-Glo luminescence, 72 h; viability (% of control): at 45 µM (top of the series); also: nearly all actives have a fitted effect of over 40% in size
How it was run: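 Cells: MV4-11, SYK inhibitor naive, 500 per well. Treatment: library compounds, 72 hr, 37 C, 5% CO2. Read-out: CellTiter-Glo luminescence after 10 min RT.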

[2] = Viability qHTS for spleen associated tyrosine kinase inhibitor (SYKi) drug resistant MV4-11 cells (AID 1963824); also: nearly all actives have a fitted effect of over 35% in size
How it was run: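 CellTiter-Glo luminescence, read 10 min after reagent addition, reports viability after a 72 hr compound exposure. Cells are an MV4-11 line made resistant to SYK inhibition, seeded at 500 per well onto compound-containing plates.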

[3] = Quantitative highthroughput screen to assess conditional lethalithy of NOMO1 cells grown in RPMI1640 with untreated serum (RPMI+s) (AID 1963876); settings: NOMO1 AML cells in RPMI+serum, CellTiter-Glo viability, 48 h; viability: at 45.8 µM (top of the series); also: nearly all actives have a fitted effect of over 35% in size;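 as to Viability: 100% = DMSO wells and 0% = empty wells without cells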
How it was run: (§1)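 Each medium arm—HPLM with 10% dialyzed FBS, or RPMI1640 with 5 mM glucose and 10% untreated or dialyzed FBS—was screened against an 11-point, 3-fold compound titration for 48 h at 37 °C, with CellTiter-Glo luminescence as endpoint.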

[4] = Quantitative highthroughput screen to assess conditional lethalithy of NOMO1 cells grown in RPMI1640 with dialyzed fetal bovine serum (RPMI+ds) (AID 1963877); also: nearly all actives have a fitted effect of over 30% in size;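 as to Viability: 100% = DMSO control wells and 0% = empty wells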
How it was run: as §1

[5] = Quantitative highthroughput screen to assess conditional lethalithy of NOMO1 cells grown in Human Plasma-Like Medium with dialyzed fetal bovine serum (HPLM+ds) (AID 1963878); settings: NOMO1 AML cells in HPLM+ds, CellTiter-Glo viability, 48 h; viability: at 45.8 µM (top of the series); also: nearly all actives have a fitted effect of over 35% in size;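 as to Viability: 100% = DMSO wells and 0% = empty wells on each plate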
How it was run: as §1

[6] = Quantitative highthroughput screen to assess conditional lethalithy of P12 Ichikawa cells grown in RPMI1640 with untreated serum (RPMI+s) (AID 1963881); settings: Potency: viability; also: nearly all actives have a fitted effect of over 35% in size;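 as to Viability: 100% = DMSO wells and 0% = empty wells without cells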
How it was run: as §1

[7] = Quantitative highthroughput screen to assess conditional lethalithy of SEM cells grown in Human Plasma-Like Medium with dialyzed fetal bovine serum (HPLM+ds) (AID 1963882); also: nearly all actives have a fitted effect of over 35% in size
How it was run: as §1

[8] = Quantitative highthroughput screen to assess conditional lethalithy of SEM cells grown in RPMI1640 with unreated serum (RPMI+s) (AID 1963883); settings: SEM B-ALL cells, CellTiter-Glo viability, 48 h; viability: at 45.8 µM (top of the series); also: nearly all actives have a fitted effect of over 35% in size;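 as to Viability: 100% = DMSO wells and 0% = empty wells without cells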
How it was run: as §1

[9] = Quantitative highthroughput screen to assess conditional lethalithy of SEM cells grown in RPMI1640 with dialyzed fetal bovine serum (RPMI+ds) (AID 1963884); settings: SEM B-ALL cells, RPMI+dialyzed FBS, CellTiter-Glo viability, 48 h; viability: at 45.8 µM (top of the series); also: nearly all actives have a fitted effect of over 35% in size;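 as to Viability: 100% = DMSO control wells and 0% = empty wells without cells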
How it was run: as §1

[10] = Cellular viability qHTS for adrenocortical cancer (ACC) cell line SW-13 (AID 1963989); settings: SW-13 ACC cells viability, CellTiter-Glo, 48 h; activity (max response): stronger effect = lower value; also: nearly all actives have a fitted effect of over 65% in size;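 as to activity (max response): cells grown in serum-free medium with ITS supplement; % is scaled to controls: 0 for no effect and ±100 for the full control effect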
How it was run: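 Luminescent ATP read-out (CellTiter-Glo, 20 min at room temperature) measured metabolically competent SW-13 cells after 48 h compound treatment. Final concentrations spanned up to 46 uM; bortezomib served as positive control.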

[11] = Cellular viability qHTS for adrenocortical cancer (ACC) cell line NCI-H295R (AID 1963990); settings: CellTiter-Glo ATP luminescence, 48 h; activity change, negative = viability loss: at 46.1 µM (top of the series); also: nearly all actives have a fitted effect of over 60% in size
How it was run: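 IC50 and maximal efficacy derive from four-parameter logistic modelling of titration curves, with reads scaled between DMSO-only wells (0%) and doxorubicin hydrochloride (100% inhibition). Compounds spanned up to 46 uM over 48 h.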

[12] = Quantitative highthroughput screen to assess conditional lethalithy of P12 Ichikawa cells grown in RPMI1640 with dialyzed fetal bovine serum (RPMI+ds) (AID 1963880); settings: Potency: P12-Ichikawa viability; also: nearly all actives have a fitted effect of over 35% in size;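 as to Viability: 100% = DMSO wells and 0% = empty wells on each plate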
How it was run: as §1
Potency is read from the fitted curve at half-maximal effect; tags tell the direction and shape of the fitted curve.

SMILES	Potency [1]	Potency [2]	Potency [3]	Potency [4]	Potency [5]	Potency [6]	Potency [7]	Potency [8]	Potency [9]	Potency [10]	Potency [11]	Potency [12]	activity (max response) [10]	viability [9]
CCOc1cc2c(c(F)c1OCC)C(=N)N(CC(=O)c1cc(N3CCOCC3)c(OC)c(C(C)(C)C)c1)C2	inconclusive: 5250 nM [cytotoxic, full curve]	active: 18.4 µM and active: 4.68 µM	inactive	inactive	inactive	inactive	inconclusive: 20.9 µM [cytotoxic, single point]	inconclusive: 33.2 µM [cytotoxic, single point]	inconclusive: 33.2 µM [cytotoxic, single point]	inconclusive: 35.5 µM [cytotoxic, single point]	inconclusive: 35.5 µM [cytotoxic, single point]			
O[C@@H](CNC[C@H](O)[C@H]1CCc2cc(F)ccc2O1)[C@@H]1CCc2cc(F)ccc2O1	active: 10600 nM	active: 21100 nM	inconclusive: 23.5 µM [cytotoxic, partial curve]	inconclusive: 18.7 µM [cytotoxic, partial curve]	active: 20.9 µM	inconclusive: 16.6 µM [cytotoxic, partial curve]	inconclusive: 33.2 µM [cytotoxic, single point]		inconclusive: 29.6 µM [cytotoxic, single point]	inconclusive: 23.1 µM [cytotoxic, single point]		inconclusive: 18.7 µM [cytotoxic, partial curve]		
Cn1cc(-c2[nH]c3cc(NC(=O)[C@H](N)C4CCCCC4)cc4c3c2C=NNC4=O)cn1	inconclusive: 130 nM [cytotoxic, full curve] and active: 66.1 nM	active: 164 nM and active: 83.3 nM	inconclusive: 8.33 µM [cytotoxic, full curve]	active: 5.26 µM	inconclusive: 6.62 µM [cytotoxic, full curve]			inconclusive: 1.87 µM [cytotoxic, full curve]		inconclusive: 28.2 µM [cytotoxic, single point]		active: 6.62 µM		
Nc1ncnc2c1c(-c1cccc(OCc3ccccc3)c1)cn2C1CC(CN2CCCC2)C1 (stereo not drawn)	active: 517 nM	active: 1300 nM	inconclusive: 13.2 µM [cytotoxic, partial curve]	inconclusive: 14.8 µM [cytotoxic, partial curve]	inconclusive: 14.8 µM [cytotoxic, partial curve]	inconclusive: 20.9 µM [cytotoxic, single point]	inconclusive: 5.9 µM [cytotoxic, partial curve]	inconclusive: 10.5 µM [cytotoxic, partial curve]			active: 2.24 µM	inconclusive: 23.5 µM [cytotoxic, single point]		
COc1ncnc(NS(=O)(=O)c2ccc(N)cc2)c1OC	inactive	inactive	active: 4.69 µM	active: 7.43 µM	active: 2.35 µM		active: 1.87 µM		inconclusive: 1.48 µM [cytotoxic, full curve, poor fit]					
O=C(O)CCC=CCC[C@@H]1[C@H](N2CCCCC2)[C@@H](O)C[C@@H]1OCc1ccc(-c2ccccc2)cc1	inactive	inconclusive: 20900 nM [cytotoxic, single point]	inconclusive: 23.5 µM [cytotoxic, single point]	inactive	inconclusive: 11.8 µM [cytotoxic, full curve]	inactive		inactive				inactive	inactive: -17.1%	
CCCCCCCCOc1ccccc1C(=O)Nc1ccc(C(=O)OCC[N+](C)(CC)CC)cc1	inconclusive: 75 nM [cytotoxic, full curve, poor fit]	inconclusive: 299 nM [cytotoxic, full curve, poor fit]	inconclusive: 33.2 µM [cytotoxic, single point]	inconclusive: 37.2 µM [cytotoxic, single point]	inconclusive: 37.2 µM [cytotoxic, single point]	inconclusive: 33.2 µM [cytotoxic, single point]	inconclusive: 18.7 µM [cytotoxic, single point]	inconclusive: 3.72 µM [cytotoxic, partial curve, poor fit]	inconclusive: 7.43 µM [cytotoxic, partial curve, poor fit]	inconclusive: 29.1 µM [cytotoxic, single point]	inconclusive: 29.1 µM [cytotoxic, single point]	inconclusive: 37.2 µM [cytotoxic, single point]		
CC(COc1ccccc1)N(CCCl)Cc1ccccc1 (stereo not drawn)	inconclusive: 9.44 µM [cytotoxic, partial curve] and inconclusive: 20.9 µM [cytotoxic, partial curve]	inconclusive: 15 µM [cytotoxic, partial curve] and inconclusive: 18.6 µM [cytotoxic, partial curve]	active: 0.166 µM	inconclusive: 0.332 µM [cytotoxic, full curve]	active: 0.209 µM		inactive			inconclusive: 31.6 µM [cytotoxic, partial curve, poor fit]				
Cc1ccc(N(CC2=NCCN2)c2cccc(O)c2)cc1	inconclusive: 21.1 µM [cytotoxic, single point] and inconclusive: 26.3 µM [cytotoxic, single point]	inconclusive: 18.8 µM [cytotoxic, partial curve] and inconclusive: 33.2 µM [cytotoxic, single point]	inconclusive: 5.9 µM [cytotoxic, full curve]	inconclusive: 7.43 µM [cytotoxic, full curve]	inconclusive: 0.418 µM [cytotoxic, full curve, poor fit]			inactive				inconclusive: 23.5 µM [cytotoxic, single point]		inconclusive: 69.3% [cytotoxic]
Nc1cccc(-c2cc3c(Oc4cccc(O)c4)ncnc3[nH]2)c1	inconclusive: 2.91 µM [cytotoxic, full curve] and active: 1.66 µM	active: 2.91 µM and active: 3.32 µM	inconclusive: 37.2 µM [cytotoxic, single point]	inconclusive: 37.2 µM [cytotoxic, single point]	inconclusive: 26.4 µM [cytotoxic, partial curve]	inconclusive: 20.9 µM [cytotoxic, partial curve]		inconclusive: 14.8 µM [cytotoxic, partial curve, poor fit]	inconclusive: 13.2 µM [cytotoxic, partial curve, poor fit]			inconclusive: 20.9 µM [cytotoxic, partial curve]		
Oc1ccc(-c2ccc(-c3cc(Nc4cccc(CNC5CC5)c4)n[nH]3)cc2)c(O)c1	active: 833 nM	active: 461 nM	inconclusive: 3.72 µM [cytotoxic, full curve]	inconclusive: 5.9 µM [cytotoxic, full curve]	inconclusive: 2.09 µM [cytotoxic, full curve]		active: 1.66 µM		active: 7.43 µM		active: 10 µM	inconclusive: 3.72 µM [cytotoxic, full curve]		
CN1C(=O)C(Cc2c[nH]c3ccccc23)NC1=S (stereo not drawn)	inconclusive: 7.31 µM [cytotoxic, partial curve, poor fit] and inconclusive: 1.48 µM [cytotoxic, partial curve, poor fit]	inconclusive: 282 nM [cytotoxic, full curve, poor fit] and inconclusive: 8.2 µM [cytotoxic, partial curve]	inactive	inactive	inactive		inconclusive: 20.9 µM [cytotoxic, partial curve]	inconclusive: 0.209 µM [cytotoxic, full curve, poor fit]	inconclusive: 2.35 µM [cytotoxic, full curve, poor fit]			inactive	inactive: 7.04%	
COC(=O)Nc1nc2ccc(Sc3ccccc3)cc2[nH]1	inconclusive: 531 nM [cytotoxic, full curve] and active: 372 nM	inconclusive: 944 nM [cytotoxic, full curve]	inconclusive: 2.64 µM [cytotoxic, full curve]	inconclusive: 2.96 µM [cytotoxic, full curve]	inconclusive: 2.09 µM [cytotoxic, full curve]	inconclusive: 2.35 µM [cytotoxic, full curve]	inconclusive: 2.64 µM [cytotoxic, full curve]			active: 184 nM and active: 316 nM		inconclusive: 2.35 µM [cytotoxic, full curve]		
C#CCC(Cc1cnc2nc(N)nc(N)c2n1)c1ccc(C(=O)N[C@@H](CCC(=O)O)C(=O)O)cc1 (stereo partly drawn)	inconclusive: 2.1 nM [cytotoxic, full curve]	active: 2.1 nM	active: 0.187 µM	inconclusive: 0.0418 µM [cytotoxic, full curve]	inconclusive: 0.0743 µM [cytotoxic, full curve]	inconclusive: 0.0418 µM [cytotoxic, full curve]	inconclusive: 0.0418 µM [cytotoxic, full curve]	active: 0.059 µM	inconclusive: 0.0372 µM [cytotoxic, full curve]					
